Hit rate of the full screen: of about 39,000 compounds, about 220 (0.56%) showed activity. This is one part of the list.

Results on 61 compounds are retold here after the supplement of paper PMC9446081.
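Note: static incubation at 37 °C against the wild-type strain, values averaged over two biological replicates.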

In the experiment the test system is Escherichia coli K-12 BW25113. The experiment can be described thus: relative growth (OD600 normalised to plate interquartile mean) (fraction); higher = less growth inhibition, active = 0.2 or less. The following applies: 50 µM; LB; incubation time: overnight (16-24 h).
In the case of `COCC(=O)Nc1ccc2c(c1)C(=O)N(C)C[C@@H](OC)[C@@H](C)CN(C(=O)c1ccccc1F)[C@@H](C)CO2`, the relative growth was inactive: 1.01.
Turning to `C[C@@H]1CN([C@@H](C)CO)C(=O)c2cc(NS(=O)(=O)c3cn(C)cn3)ccc2O[C@@H]1CN(C)S(=O)(=O)c1cn(C)cn1`, the relative growth was inactive: 0.994.
Take `COCCNC(=O)C[C@@H]1CC[C@@H]2[C@H](COC[C@H](O)CN2C(=O)Nc2ccccc2OC)O1`: the relative growth was inactive: 1.02.
As for `COCCNC(=O)C[C@@H]1CC[C@@H]2[C@H](COC[C@@H](O)CN2C(=O)Nc2ccccc2OC)O1`, the relative growth is inactive: 0.974.
Consider `COc1ccc(CN2C[C@@H](C)[C@H](OC)CN(C)C(=O)c3cc(NC(=O)c4nc5ccccc5s4)ccc3OC[C@@H]2C)cc1`, for which the relative growth is inactive: 1.03.
`CN1CCO[C@H]2CCN(C(=O)c3cn(C)cn3)C[C@H]21`: the relative growth is inactive: 1.01.
On to `C[C@H]1CCCCO[C@H](CN(C)C)[C@@H](C)CN([C@@H](C)CO)C(=O)c2cc(NC(=O)Nc3ccc(C(F)(F)F)cc3)ccc2O1`, for which the relative growth is inactive: 0.947.
For the compound `C=CCNC(=O)CSc1nc(=O)cc(N)[nH]1`, the relative growth was inactive: 1.02.
Consider `C[C@H](O)C#Cc1ccc2c(c1)O[C@H](CN(C)C(=O)c1ccccc1)[C@@H](C)CN([C@@H](C)CO)S2(=O)=O`, for which the relative growth is inactive: 1.
In the case of `CSc1nc2nc(N)nc(N)c2s1`, the relative growth was inactive: 1.
As for `Cn1cnc(S(=O)(=O)N[C@H]2C=C[C@H](CC(=O)Nc3ccccc3)O[C@H]2CO)c1`, the figure is inactive: 0.986; as for `COc1ccc(S(=O)(=O)Nc2ccc3c(c2)C(=O)N([C@@H](C)CO)C[C@@H](C)[C@@H](CN(C)Cc2ccc(C(=O)O)cc2)OCCCC[C@H](C)O3)cc1`, inactive: 1.01.
For `COc1ccc([Si](C)(C)[C@H]2[C@H](CCO)O[C@@]3(C(=O)N(Cc4ccc(N(C=O)c5ccccc5)cc4)c4ccccc43)[C@@H]2C)cc1` the value was inactive: 1.05; for `C[C@@H]1CN([C@H](C)CO)C(=O)c2cc(NC(=O)Cn3cnnn3)ccc2O[C@@H]1CN(C)Cc1ccc(C(=O)Nc2ccccc2N)cc1`, inactive: 1.
For the compound `COCCOC(=O)N1C(=O)[C@@]2(c3cc(C#Cc4ccc(OC)cc4)ccc31)[C@H](C(=O)N1CCN(c3ncccn3)CC1)[C@H]1C(=O)O[C@H](c3ccccc3)[C@H](c3ccccc3)N1[C@@H]2c1ccccc1OCCO`, the relative growth was inactive: 1.07.
For `COc1c(C)c2c(c(O)c1CC=C(C)CCC(=O)OCCN1CCOCC1)C(=O)OC2` the value was inactive: 0.928; for `C[C@@H]1CCCCO[C@H](CN(C)Cc2ccc(C(F)(F)F)cc2)[C@H](C)CN([C@H](C)CO)C(=O)c2cc(NC(=O)Nc3cccc4ccccc34)ccc2O1`, inactive: 1.08; for `C[C@@H]1CN([C@@H](C)CO)C(=O)Cc2cc(NS(=O)(=O)c3ccccc3)ccc2O[C@H]1CN(C)Cc1ccc(-c2ccccc2)cc1`, inactive: 0.976.
As for `COC(=O)[C@H](Cc1ccc(-n2cc(-c3cccc(/C=C/C(=O)NO)c3)nn2)cc1)N1CC2=C[C@H]([C@@H](O)Cc3ccccc3)n3c(=O)n(C)c(=O)n3[C@@H]2[C@@H](C2CC2)O1`, the figure is inactive: 0.996; as for `COCC(=O)N(C)C[C@H]1Oc2cc(C#CC(C)(C)O)ccc2S(=O)(=O)N([C@@H](C)CO)C[C@@H]1C`, inactive: 1.02; as for `C[C@@H]1CN([C@H](C)CO)S(=O)(=O)c2ccc(-c3cccc(F)c3)cc2O[C@@H]1CN(C)S(C)(=O)=O`, inactive: 1.02.
For the compound `Cc1cccc(S(=O)(=O)N2C[C@@H](O)COC[C@H]3O[C@H](CC(=O)NCc4ccc(Cl)c(Cl)c4)CC[C@@H]32)c1`, the relative growth is inactive: 1.01.
For `COc1ccc2c3c([nH]c2c1)[C@H](CO)N(C[C@]13CN(C1)S(=O)(=O)c1ccccc1)C(=O)c1cnccn1`, the relative growth was inactive: 0.994.
In the case of `C[C@@H]1CN([C@@H](C)CO)C(=O)c2cc(NC(=O)Nc3ccc4c(c3)OCO4)ccc2O[C@@H](C)CCCCO[C@@H]1CN(C)Cc1ccncc1`, the relative growth was inactive: 0.988.
Regarding `C[C@H]1CN([C@@H](C)CO)C(=O)Cc2cc(NC(=O)c3ccncc3)ccc2O[C@H]1CN(C)S(=O)(=O)c1ccc(F)cc1`, the relative growth is inactive: 0.994.
As for `CC(C)CC#Cc1cnc2c(c1)C(=O)N([C@@H](C)CO)C[C@@H](C)[C@@H](CN(C)C(=O)CN1CCOCC1)O2`, the figure is inactive: 1.
Consider `Cc1ccc(S(=O)(=O)N(C)C[C@@H]2Oc3ncc(C#CC4(O)CCCC4)cc3C(=O)N([C@H](C)CO)C[C@@H]2C)cc1`, for which the relative growth is inactive: 0.883.
With `CC(C)NC(=O)N(C)C[C@H]1OCCCC[C@@H](C)Oc2ccc(NS(C)(=O)=O)cc2C(=O)N([C@H](C)CO)C[C@H]1C`, the relative growth was inactive: 0.985.
As for `CCCNC(=O)N1C[C@H](C)[C@H](OC)CN(C)C(=O)c2ccc(NS(=O)(=O)CC(F)(F)F)cc2OC[C@H]1C`, the relative growth is inactive: 0.974.
Turning to `C[C@H]1[C@H]([Si](C)(C)F)[C@@H](CCO)O[C@]12C(=O)N(Cc1cccc(N(C=O)c3ccccc3)c1)c1ccccc12`, the relative growth was inactive: 0.891.
Take `C[C@@H]1CN([C@@H](C)CO)C(=O)CCCn2nncc2CO[C@@H]1CN(C)C(=O)c1cc(-c2ccccc2)on1`: the relative growth is inactive: 0.991.
For `O=C(C[C@@H]1C[C@@H]2c3cc(NC(=O)NC4CCCC4)ccc3O[C@@H]2[C@@H](CO)O1)NCc1ccc(Oc2ccccc2)cc1`, the relative growth is inactive: 0.987.
Turning to `C[C@@H]1CN([C@@H](C)CO)C(=O)c2cc(NC(=O)C3CCCCC3)ccc2O[C@@H](C)CCCCO[C@H]1CN(C)C(=O)Nc1cccc2ccccc12`, the relative growth is inactive: 1.01.
For `C[C@@H]1CN([C@@H](C)CO)C(=O)c2cc(NC(=O)CCC(F)(F)F)ccc2O[C@H]1CN(C)Cc1ccc(C(F)(F)F)cc1`, the relative growth was inactive: 0.98.
In the case of `Cc1ccc2nc(SCc3ccc4ccccc4c3)[nH]c2c1`, the relative growth is inactive: 0.969.
Take `C[C@H](CO)N1C[C@H](C)[C@H](CN(C)S(=O)(=O)c2cccc(F)c2)Oc2cc(C#CCN(C)C)ccc2S1(=O)=O`: the relative growth is inactive: 1.03.
On to `CO[C@H]1O[C@H](CO)[C@@H](OC(=O)Nc2cccc(F)c2)[C@@H]2OC(=O)[C@H](Cc3cccc(Br)c3)C/C=C/C[C@@H](Cc3cccc(Br)c3)C(=O)O[C@@H]12`, for which the relative growth is inactive: 1.01.
Consider `COc1ccc(CN(C)C[C@@H]2Oc3ccc(NC(=O)Nc4ccc(C(F)(F)F)cc4)cc3C(=O)N([C@H](C)CO)C[C@@H]2C)cc1`, for which the relative growth was inactive: 0.988.
Turning to `C[C@H]1CN([C@@H](C)CO)C(=O)c2cc(C3=CCCC3)cnc2O[C@@H]1CN(C)S(=O)(=O)c1cn(C)cn1`, the relative growth was inactive: 0.997.
For `O=C(C[C@@H]1C[C@H]2c3cc(NS(=O)(=O)c4ccc(F)cc4)ccc3O[C@H]2[C@@H](CO)O1)NCc1ccccc1F` the value was inactive: 0.998; for `Cc1noc(C)c1S(=O)(=O)N(C)C[C@H]1Oc2ccc(NC(=O)Nc3ccc4c(c3)OCO4)cc2CC(=O)N([C@@H](C)CO)C[C@@H]1C`, inactive: 1.01; for `COCC(=O)Nc1ccc2c(c1)OC[C@@H](C)N(Cc1ccccc1C(=O)O)C[C@@H](C)[C@H](OC)CN(C)C2=O`, inactive: 0.994.
As to `Cc1noc(C)c1S(=O)(=O)Nc1ccc2c(c1)C(=O)N([C@@H](C)CO)C[C@H](C)[C@H](CN(C)S(=O)(=O)c1ccc(Cl)cc1)O2`, the relative growth is inactive: 1.01.
As for `COc1ccc(NC(=O)N(C)C[C@H]2Oc3ccc(NC(=O)Nc4cccc5ccccc45)cc3CC(=O)N([C@H](C)CO)C[C@@H]2C)cc1`, the relative growth was inactive: 1.
For `Cc1ccc(S(=O)(=O)Nc2ccc3c(c2)C(=O)N([C@H](C)CO)C[C@@H](C)[C@H](CN(C)C(=O)C2CCCCC2)OCCCC[C@@H](C)O3)cc1` the value was inactive: 0.913.
Consider `C[C@@H]1CN([C@H](C)CO)C(=O)c2cccc(NC(=O)Nc3ccc(C(F)(F)F)cc3)c2O[C@@H]1CN(C)Cc1ccc(C(=O)Nc2ccccc2N)cc1`, for which the relative growth is inactive: 1.01.
For `C[C@H](CO)N1C[C@H](C)[C@H](CN(C)S(C)(=O)=O)Oc2c(NS(=O)(=O)c3cn(C)cn3)cccc2C1=O` the value was inactive: 1; for `S=C1NCN(Cc2cccs2)CN1`, inactive: 1.04; for `CN1CCN(C(=O)C[C@@H]2CC[C@@H]3[C@H](COC[C@@H](O)CN3C(=O)C3CC3)O2)CC1`, inactive: 0.986.
As to `COc1ccc(S(=O)(=O)N(C)C[C@H]2Oc3ccc(NC(=O)C4CC4)cc3C(=O)N([C@H](C)CO)C[C@@H]2C)cc1`, the relative growth was inactive: 1.02.
Consider `NC(=O)CC(N)=S`, for which the relative growth was inactive: 0.991.
Take `Cc1noc(C)c1S(=O)(=O)N(C)C[C@H]1Oc2c(NC(=O)NC(C)C)cccc2C(=O)N([C@H](C)CO)C[C@H]1C`: the relative growth was inactive: 1.01.
With `COc1ccc(S(=O)(=O)Nc2ccc3c(c2)C(=O)N([C@H](C)CO)C[C@H](C)[C@@H](CN(C)C(=O)Nc2ccc(C(F)(F)F)cc2)OCCCC[C@@H](C)O3)cc1`, the relative growth is inactive: 0.999.
As for `Nc1nc(S)c2nc[nH]c2n1`, the figure is inactive: 0.861.
As to `O=C(O)[C@H](O)[C@@H](O)C(=O)O`, the relative growth is inactive: 1.04.
`CC(=O)OC1CCC2(C)C(CCC3C4CC=C(C(C)=O)C4(C)CCC32)C1` (stereo not drawn) [3-beta-ACETOXYALLOPREG-16-EN-20-ONE]: the relative growth is inactive: 0.927.
Turning to `Cc1noc(C)c1S(=O)(=O)N(C)C[C@H]1Oc2ccc(NC(=O)c3ccncc3)cc2C(=O)N([C@H](C)CO)C[C@@H]1C`, the relative growth was inactive: 0.999.
As for `NS(=O)(=O)c1cc2c(cc1Cl)NC(C1CC3C=CC1C3)NS2(=O)=O` (stereo unspecified), the figure is inactive: 1.02; as for `Cc1ccc(N2CCC(CN)CC2)nn1`, inactive: 1.
In the case of `O=C1NS(=O)(=O)c2ccccc21`, the relative growth was inactive: 0.978.
On to `C[C@H](CO)N1C[C@H](C)[C@H](CN(C)S(=O)(=O)c2cn(C)cn2)Oc2ncc(C#Cc3ccc(F)cc3)cc2C1=O`, for which the relative growth was inactive: 0.995.
